This is an account of results in the supplement of paper PMC8183993.

The structures appear in SMILES notation. Counter-ions that a name gives are not always drawn. ± gives the standard deviation of the averaged measurements. Whole data set: some 3,100 compounds, median “mean cytoplasmic OPP incorporation (global translation) relative to DMSO” near 100, cut for the lowest 2% near 56. Some of the results follow.

The test has as its system U2OS. Put plainly: mean cytoplasmic OPP incorporation (global translation) relative to DMSO (% of DMSO); higher = more protein synthesis. Particulars: 10 µM; 24 h. How it is done:
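Primary image-based screen in U2OS cells: compounds at 10 uM for 24 h, then a 1 h o-propargyl-puromycin (OPP) pulse, click labelling, and high-throughput microscopy. Mean cytoplasmic OPP intensity and nuclei count were normalised to DMSO wells within each plate (DMSO = 100) and averaged over triplicate plates.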
Regarding `CS(=O)(=O)c1ccc([C@@H](O)[C@@H](CF)NC(=O)C(Cl)Cl)cc1` [Florfenicol], the “mean cytoplasmic OPP incorporation” value was 99.5.
Under `O=C(O)Cn1c(C(=O)Nc2nc(-c3ccccc3Cl)cs2)cc2ccccc21` stands 98.
Under `CCNC(=O)[C@H]1O[C@@H](n2cnc3c(N)nc(NCCc4ccc(CCC(=O)O)cc4)nc32)[C@H](O)[C@@H]1O` stands 104; under `O=C(COc1cccc2c(=O)[nH]ccc12)c1ccccc1`, 85.4; under `C[C@@H](O)[C@H]1C(=O)N2C(C(=O)O)=C(SCCNC=N)C[C@H]12` [Imipenem], 80.8.
The figure for `CC[C@]12C=CCN3CC[C@@]4(c5cc([C@@]6(C(=O)OC)C[C@@H]7C[C@@H](C(C)(F)F)CN(Cc8c6[nH]c6ccccc86)C7)c(OC)cc5N(C)[C@H]4[C@@](O)(C(=O)OC)[C@@H]1OC(C)=O)[C@@H]32` [Vinflunine Tartrate] is 123; for `c1ccc2c(c1)CCCC2C1=NCCN1` (centres undefined) [Tetrahydrozoline hydrochloride] it is 104.
Consider `CC(C)(C)C(=O)OCOC(=O)[C@@H]1N2C(=O)[C@@H](/N=C/N3CCCCCC3)[C@H]2SC1(C)C` [Pivmecillinam hydrochloride], for which the “mean cytoplasmic OPP incorporation” value was 103.
Under `O=C(c1ccc(F)cc1)C1CCN(CCCCc2ccccc2)CC1` [4-(4-Fluorobenzoyl)-1-(4-phenylbutyl)-piperidine oxalate] stands 103; under `OCC(O)CN1CCN(c2ccccc2)CC1` (racemic) [Dropropizine (R,S)], 99.2; under `CNc1ncnc2c1ncn2[C@@H]1O[C@H](CO)[C@@H](O)[C@H]1O` [N6-methyladenosine], 111.
Consider `CC(C)OC(=O)C(C(=O)OC(C)C)=C1SC=CS1` [Malotilate], for which the “mean cytoplasmic OPP incorporation” value was determined as 98.1.
For the compound `O=C(O)C1=C[C@@H](O)[C@@H](O)[C@H](O)C1` [Shikimic acid (Shikimate)], the “mean cytoplasmic OPP incorporation” value worked out at 97.7.
The figure for `C1N2CN3CN1CN(C2)C3` [Methenamine] is 104; for `C[Se]CC[C@H](N)C(=O)O` [Selenomethionine] it is 103; for `O=C1NCCN1c1ncc([N+](=O)[O-])s1` [Niridazole] it is 94.7.
For `CCCCCN(C)CCC(O)(P(=O)(O)O)P(=O)(O)O` [Ibandronate sodium], the “mean cytoplasmic OPP incorporation” value was 90.9 ± 2.9.
For `CN=c1nc(-c2ccccc2)n(-c2ccccc2)s1`, the “mean cytoplasmic OPP incorporation” value was found to be 105.
On to `C[C@H](NCc1ccc(OCc2cccc(F)c2)cc1)C(N)=O`, for which the “mean cytoplasmic OPP incorporation” value turned out to be 100.
As for `CCn1cc(C(=O)O)c(=O)c2cc(F)c(N3CCNCC3)nc21` [Enoxacin], the “mean cytoplasmic OPP incorporation” value was 102.
Take `CC(=O)OCC(=O)NCCCOc1cccc(CN2CCCCC2)c1` [Roxatidine Acetate HCl]: the “mean cytoplasmic OPP incorporation” value turned out to be 94.4.
The figure for `OC[C@@H](O)[C@@H](O)[C@H](O)[C@H](O)CO` [D-Mannitol (Osmitrol)] is 97.4; for `C=CCc1ccc(O)c(OC)c1` [Eugenol] it is 109.
The figure for `NCC1CCC(C(=O)N[C@@H](Cc2ccccc2)C(=O)Nc2ccc(CC(=O)O)cc2)CC1` (some centres undefined) is 97.5.
For `CC(C(=O)O)c1cccc(Oc2ccccc2)c1` (centres undefined) [Fenoprofen calcium hydrate], the “mean cytoplasmic OPP incorporation” value is 105.
`CC(C(=O)O)c1cccc(Oc2ccccc2)c1` (centres undefined) [Fenoprofen calcium salt dihydrate]: the “mean cytoplasmic OPP incorporation” value is 103.
Under `Oc1ccc(C2CNCCc3c2cc(O)c(O)c3Cl)cc1` (centres undefined) [Fenoldopam hydrochloride] stands 101.
With `CN1Cc2c(C(=O)OC(C)(C)C)ncn2-c2ccsc2C1=O`, the “mean cytoplasmic OPP incorporation” value was 114.
Regarding `N#C/C(=C\c1ccc(O)c(O)c1)C(=O)Nc1ccccc1`, the “mean cytoplasmic OPP incorporation” value was found to be 90.9.
The figure for `CNc1cc2c(Nc3cccc(Br)c3)ncnc2cn1` is 91.2; for `OC[C@H]1OC(O)[C@H](O)[C@@H](O)[C@@H]1O` (stereo partly drawn) [Dextrose (D-glucose)] it is 101; for `O=C1NC(=O)C(c2ccccc2[N+](=O)[O-])=C1Nc1ccc(O)c(Cl)c1` it is 97.4 ± 0.18.
Under `O=C1NC(=O)/C(=C/c2ccc3nccc(-c4ccncc4)c3c2)S1` stands 90.1; under `CCCc1ncc(C[n+]2ccccc2C)c(N)n1` [Amprolium hydrochloride], 104; under `CC(Oc1ccc(O)cc1)(P(=O)(O)O)P(=O)(O)O`, 100 ± 3.4.
With `CCCSc1ccc2[nH]c(NC(=O)OC)nc2c1` [Albendazole], the “mean cytoplasmic OPP incorporation” value was 78.4.
The figure for `CCCSc1ccc2[nH]c(NC(=O)OC)nc2c1` [Albendazole (Albenza)] is 85.4.
Under `Cc1c(Cl)cccc1Nc1ccccc1C(=O)O` [Tolfenamic acid] stands 100; under `CN(C)CCC1(c2ccc(Cl)cc2)Cc2ccccc2C(=O)O1` (racemic) [(±)-AC 7954 hydrochloride], 102; under `CO[C@H]1/C=C/O[C@@]2(C)Oc3c(C)c(O)c4c(O)c(c(/C=N/N5CCN(C)CC5)c(O)c4c3C2=O)NC(=O)/C(C)=C\C=C\[C@H](C)[C@H](O)[C@@H](C)[C@@H](O)[C@@H](C)[C@H](OC(C)=O)[C@@H]1C` [Rifampin (Rifadin, Rimactane)], 109.
For the compound `CO[C@H]1/C=C/O[C@@]2(C)Oc3c(C)c(O)c4c(O)c(c(/C=N/N5CCN(C)CC5)c(O)c4c3C2=O)NC(=O)/C(C)=C\C=C\[C@H](C)[C@H](O)[C@@H](C)[C@@H](O)[C@@H](C)[C@H](OC(C)=O)[C@@H]1C` [Rifampicin], the “mean cytoplasmic OPP incorporation” value amounted to 107.5 ± 0.81.
The figure for `COc1cc(F)c(C(C)C)cc1-c1ccc(C(F)(F)F)cc1CN1C(=O)O[C@H](c2cc(C(F)(F)F)cc(C(F)(F)F)c2)[C@@H]1C` [Anacetrapib (MK-0859)] is 111; for `CC(C)(C)c1ccc(/C=C/C(=O)Nc2ccc3c(c2)OCCO3)cc1` it is 112.
Take `CCc1ccc(CCOc2ccc(CC3SC(=O)NC3=O)cc2)nc1` (centres undefined) [Pioglitazone]: the “mean cytoplasmic OPP incorporation” value was 102.8 ± 0.67.
Turning to `O=C(CCCCCCC(=O)Nc1cccnc1)NO` [Pyroxamide], the “mean cytoplasmic OPP incorporation” value was 65.9.
Under `Cc1ccc(S(=O)(=O)C=CC#N)cc1` stands 65.3; under `Cc1ccc(N(CC2=NCCN2)c2cccc(O)c2)cc1` [Phentolamine hydrochloride], 95.1.
The figure for `Cc1ccc(N(CC2=NCCN2)c2cccc(O)c2)cc1` [Phentolamine HCl] is 95.5.
With `O=C1c2ccccc2C(=O)C1c1ccccc1` [Phenindione], the “mean cytoplasmic OPP incorporation” value was 105.
Under `O=C(c1cc(Cc2n[nH]c(=O)c3ccccc23)ccc1F)N1CCN(C(=O)C2CC2)CC1` [Olaparib (AZD2281)] stands 96.1.
Under `O=C(c1cc(Cc2n[nH]c(=O)c3ccccc23)ccc1F)N1CCN(C(=O)C2CC2)CC1` [Olaparib] stands 101; under `CC(C)[C@@H](C)/C=C/[C@@H](C)[C@H]1CC[C@H]2C3=CC=C4C[C@@H](O)CC[C@]4(C)[C@H]3CC[C@]12C` [Ergosterol], 123.
Under `Clc1ccc2c(c1)C(N1CCNCC1)=Nc1ccccc1O2` [Amoxapine] stands 98.3; under `O=C(O)CCc1nc(-c2ccccc2)c(-c2ccccc2)o1` [Oxaprozin], 98.8; under `CCCCCCCCOC(=O)/C=C/c1ccc(O)c(O)c1` [n-Octyl caffeate], 88.9.
In the case of `OCCN1CCN(CCCN2c3ccccc3Sc3ccc(C(F)(F)F)cc32)CC1` [Fluphenazine dihydrochloride], the “mean cytoplasmic OPP incorporation” value was 114.
Under `CC(C)(Oc1ccc(CCNC(=O)c2ccc(Cl)cc2)cc1)C(=O)O` [Bezafibrate] stands 95.3.
Regarding `c1ccc(CC2=NCCN2)cc1` [Tolazoline hydrochloride], the “mean cytoplasmic OPP incorporation” value is 103.
The figure for `CC[C@H]1OC(=O)[C@H](C)[C@@H](O[C@H]2C[C@@](C)(OC)[C@@H](O)[C@H](C)O2)[C@H](C)[C@@H](O[C@@H]2O[C@H](C)C[C@H](N(C)C)[C@H]2O)[C@](C)(O)C[C@@H](C)C(=O)[C@H](C)[C@@H](O)[C@]1(C)O` [Erythromycin] is 109; for `CC[C@H]1OC(=O)[C@H](C)[C@@H](O[C@H]2C[C@@](C)(OC)[C@@H](O)[C@H](C)O2)[C@H](C)[C@@H](O[C@@H]2O[C@H](C)C[C@H](N(C)C)[C@H]2O)[C@](C)(O)C[C@@H](C)C(=O)[C@H](C)[C@@H](O)[C@]1(C)O` [Erythromycin (E-Mycin)] it is 101; for `CCOC(=O)N1CCC(=C2c3ccc(Cl)cc3CCc3cccnc32)CC1` [Loratidine] it is 102.
The figure for `CCOC(=O)N1CCC(=C2c3ccc(Cl)cc3CCc3cccnc32)CC1` [Loratadine] is 115; for `CC(C)Cc1ccc(C(C)C(=O)NO)cc1` (centres undefined) [Ibuproxam] it is 99.7; for `Nc1nc(F)nc2c1ncn2[C@@H]1O[C@H](COP(=O)(O)O)[C@@H](O)[C@@H]1O` [Fludarabine Phosphate (Fludara)] it is 100.
Regarding `O=C(NOCC1CC1)c1ccc(F)c(F)c1Nc1ccc(I)cc1Cl`, the “mean cytoplasmic OPP incorporation” value worked out at 93.6.
For `CC1(C)CCC(c2ccc(Cl)cc2)=C(CN2CCN(c3ccc(C(=O)NS(=O)(=O)c4ccc(N[C@H](CCN5CCOCC5)CSc5ccccc5)c(S(=O)(=O)C(F)(F)F)c4)cc3)CC2)C1` [ABT-263 (Navitoclax)], the “mean cytoplasmic OPP incorporation” value came to 112.
Under `COc1[nH]c2ccc(F)cc2c1C(=O)OCC1CCN(CCNS(C)(=O)=O)CC1.NS(=O)(=O)O` stands 99.7; under `O=C(OCCN1CCOCC1)C1(c2ccccc2)CCCCC1` [PRE-084 hydrochloride], 101.
For `CC(C)C[C@H](NC(=O)[C@H](Cc1ccccc1)NC(=O)c1cnccn1)B(O)O` [Bortezomib (Velcade)], the “mean cytoplasmic OPP incorporation” value turned out to be 58.9.
Turning to `COc1ccc(CC(C)NCC(O)c2ccc(O)c(NC=O)c2)cc1` (centres undefined) [Formoterol hemifumarate], the “mean cytoplasmic OPP incorporation” value was 93.6.
Under `COc1ccc(CC(C)NCC(O)c2ccc(O)c(NC=O)c2)cc1` (centres undefined) [Formoterol fumarate] stands 103; under `CS(=O)(=O)c1ccc(C(=O)Nc2ccc(Cl)c(-c3ccccn3)c2)c(Cl)c1` [Vismodegib (GDC-0449)], 104.
With `COc1ccc(-c2coc3cc(O)ccc3c2=O)cc1` [Formononetin (Formononetol)], the “mean cytoplasmic OPP incorporation” value is 97.7.
Regarding `CN1CCN(S(=O)(=O)c2ccc(-c3cnc(N)c(C(=O)Nc4cccnc4)n3)cc2)CC1`, the “mean cytoplasmic OPP incorporation” value came out at 106.
